From PubChem BioAssay AID1768 (National Center for Advancing Translational Sciences (NCATS), 2009)
About 620 (0.23%) of roughly 270,000 compounds were called active. Inconclusive results, whose numbers are uncertain, are shown with a selection of clear calls. The call rests on the fitted dose curve; in most records, active means well fitted inhibition curve with a large enough effect in the polarisation, with a control signal flat (not every such curve was filed as active); inconclusive means small, poorly fitted or top-dose-only effect, or effect the other way, or a change in a side signal; inactive means no such curve, though single readings can be large or run the other way; the % refers to the polarisation. A potency beside an inconclusive call is a rough fit, not a confirmed value. “Side channel” marks fits to a control or component signal instead of the main read-out.

Biological target: Menin (Homo sapiens) (UniProt O00255)
Assay: qHTS Assay for Inhibitors Targeting the Menin-MLL Interaction in MLL Related Leukemias: Competition With Texas Red Labeled MLL-derived Mutant Peptide; on FP activity change, negative = inhibition: % of control where 0% means no effect
Conditions: fluorescence polarization; FP activity change, negative = inhibition: at 61.6 µM (top of the series)
Potency means the concentration at half of the fitted maximal effect; tags describe the fitted curve by direction and shape or compound fluorescence and quenching.

UniProt O00255, sequence (O00255 whole entry, looked up): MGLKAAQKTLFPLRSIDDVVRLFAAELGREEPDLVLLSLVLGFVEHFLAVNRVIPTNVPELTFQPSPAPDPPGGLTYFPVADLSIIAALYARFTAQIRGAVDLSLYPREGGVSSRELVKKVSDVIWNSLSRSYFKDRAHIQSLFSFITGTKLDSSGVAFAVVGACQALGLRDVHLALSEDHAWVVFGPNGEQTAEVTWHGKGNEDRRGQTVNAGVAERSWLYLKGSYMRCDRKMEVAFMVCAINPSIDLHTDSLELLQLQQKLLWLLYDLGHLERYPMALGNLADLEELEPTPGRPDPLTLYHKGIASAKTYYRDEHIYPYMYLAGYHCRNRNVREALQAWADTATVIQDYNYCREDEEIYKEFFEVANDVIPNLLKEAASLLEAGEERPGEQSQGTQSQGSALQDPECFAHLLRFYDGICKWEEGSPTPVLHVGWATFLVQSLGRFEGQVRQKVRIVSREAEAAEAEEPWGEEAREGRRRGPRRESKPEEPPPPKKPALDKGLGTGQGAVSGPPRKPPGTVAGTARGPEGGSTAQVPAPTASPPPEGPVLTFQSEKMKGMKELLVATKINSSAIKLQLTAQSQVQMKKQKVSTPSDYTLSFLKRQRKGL

Row | Compound | Potency | FP activity change, negative = inhibition
1 | O=C(O)c1cccc(NC(=O)c2ccc(Cl)c(S(=O)(=O)N3CCCCCC3)c2)c1 | inconclusive: 22.4 µM [quencher, side channel, partial curve] | 
2 | COc1ccc(C(=O)CC(=O)Nc2ccc([N+](=O)[O-])cc2)cc1 | inconclusive: 35.5 µM [quencher, side channel, partial curve] | 
3 | COC(=O)CCC(=O)NNC(=O)c1cccc(Cl)c1 | inconclusive: 6.31 µM [inhibitor, full curve, poor fit] | 
4 | Cc1ccc(C)c(N2C(=O)CC(Cc3ccccc3)C2=O)c1 (stereo not drawn) | inconclusive: 35.5 µM [inhibitor, single point] | 
5 | Cc1cccc(N2CCN(C(=O)C3CCCCC3)CC2)c1C | inconclusive: 10 µM [fluorescent, side channel, partial curve] | 
6 | OCCN1CCN(c2ncnc3sc4c(c23)CCCC4)CC1 | inconclusive: 3.98 µM [quencher, side channel, partial curve] | 
7 | CCOc1ccc(NS(=O)(=O)c2ccc(NS(=O)(=O)c3cccs3)cc2)cc1 | inconclusive: 31.6 µM [quencher, side channel, single point] | 
8 | COc1ccc(C(=O)COC(=O)c2cccnc2Cl)c(OC)c1 | inconclusive: 22.4 µM [quencher, side channel, single point] | 
9 | Cc1ccc(NC(=S)NC(NC(=O)c2ccco2)C(Cl)(Cl)Cl)cc1 (stereo not drawn) | inconclusive: 39.8 µM [inhibitor, single point] | 
10 | Cc1cccc(/C=N/Nc2nncc3ccccc23)c1 | inconclusive: 12.6 µM [quencher, side channel, partial curve] | 
11 | O=C(CSc1nc2ccccc2s1)c1cc2ccccc2o1 | inconclusive: 39.8 µM [inhibitor, single point] | 
12 | CCOC(=O)c1c(/N=C/N(C)C)sc(/C=N/Nc2ccccc2)c1-c1ccc(Cl)cc1 | inconclusive: 28.2 µM [quencher, side channel, single point] | 
13 | CC(=O)Oc1ccc(/C=C2/C(=O)N(c3ccccc3)N=C2C)cc1 | inconclusive: 14.1 µM [quencher, side channel, partial curve] | 
14 | Nc1ccc(-c2nc3ccccc3s2)cn1 | inconclusive: 35.5 µM [quencher, side channel, single point] | 
15 | CC(=O)Nc1ccc(Nc2nc(C)nc3c2oc2ccccc23)cc1 |  | inactive: -9.44%
16 | CCCCCCCCOC(=O)c1nc(Cl)c(Cl)c(N)c1Cl |  | inactive: 11.1%
17 | COc1cc2c(c(OC)c1OC)CCc1cnoc1-2 | inconclusive: 28.2 µM [inhibitor, single point] | 
18 | CC[C@H]1C2=C3C(CC[C@H]4C(OCc5ccc(F)cc5C(F)(F)F)OC[C@](C)([C@@H]34)N(C(=O)OC(C)(C)C)C2)C(COC(C)=O)C1COC(C)=O (stereo partly drawn) | inconclusive: 7.94 µM [inhibitor, partial curve] | 
19 | Cc1cc(Nc2cccc(Cl)c2)nc(-c2ccccc2O)n1 | inconclusive: 3.16 µM [quencher, partial curve] | 
20 | O=C(C1=C[C@H](C2CC2)C[C@H](OCc2ccc(CO)cc2)O1)N1CCN(Cc2ccccc2)CC1 | inconclusive: 3.16 µM [fluorescent, side channel, full curve] | 

Row | Compound | Potency | FP activity change, negative = inhibition
21 | Nc1c(S(=O)(=O)c2cccs2)c2nc3ccccc3nc2n1Cc1cccs1 | inconclusive: 39.8 µM [inhibitor, single point] | 
22 | Cc1cc2ccccc2n1CCNC(=O)C(C)Oc1ccccc1 (stereo not drawn) | inconclusive: 35.5 µM [fluorescent, side channel, single point] | 
23 | Cc1cccc(NC(=O)COC(=O)c2ccccn2)c1 |  | inactive: 0.651%
24 | COc1ccc(C2/C=C\CN(C(=O)c3ccccc3)CC(=O)N2Cc2ccc(F)cc2)cc1 (stereo not drawn) | inconclusive: 3.98 µM [fluorescent, side channel, full curve, poor fit] | 
25 | N#Cc1ccsc1NC(=O)COC(=O)c1cc2ccccc2cc1O | inconclusive: 28.2 µM [quencher, side channel, single point] | 
26 | COc1ccc(/C=N/NC(=O)c2ccoc2C)cc1CN1CCN(c2ccc(F)cc2)CC1 |  | inactive: -0.401%
27 | Cc1cccc(NC(=O)/C(=C\c2cccs2)NC(=O)c2ccccc2)c1 | inconclusive: 12.6 µM [inhibitor, partial curve] | 
28 | CCOC(=O)c1ccc(N2Cc3ccccc3C2)cc1O | inconclusive: 28.2 µM [quencher, side channel, single point] | 
29 | CC(=O)Nc1ccc(NC(=O)c2ccc(C)c(S(=O)(=O)Nc3cccc(C)c3)c2)cc1 | inconclusive: 7.08 µM [quencher, side channel, partial curve] | 
30 | O=C(Nc1ccc(-c2noc(-c3ccccc3F)n2)cc1)c1cccs1 | inconclusive: 39.8 µM [inhibitor, single point] | 
31 | COc1ccc(Br)cc1CNc1ccc(N2CCOCC2)cc1 | active: 14.1 µM | 
32 | O=C1CSC(c2cn(-c3ccccc3)nc2-c2cc3ccccc3oc2=O)N1Cc1ccco1 (stereo not drawn) | inconclusive: 39.8 µM [inhibitor, partial curve, poor fit] | 
33 | COc1ccc(C(=O)Nc2ccc(S(=O)(=O)N3CCCC3)cc2)cc1[N+](=O)[O-] | inconclusive: 17.8 µM [quencher, side channel, partial curve] | 
34 | CC1CC(C)CN(CCCNC(=O)C2CCN(c3nnc(-n4cccc4)s3)CC2)C1 (stereo not drawn) | inconclusive: 25.1 µM [inhibitor, single point] | 
35 | Cc1ccc2nc(NCCCN3CCOCC3)c(C=NCCCN3CCOCC3)c(=O)n2c1 | inconclusive: 25.1 µM [inhibitor, single point] | 
36 | CCc1ccc(NC(=O)Cn2c(=O)n(CCCC(=O)NCc3ccco3)c(=O)c3ccccc32)cc1 | inconclusive: 25.1 µM [fluorescent, side channel, single point] | 
37 | Cc1cc(NS(=O)(=O)c2ccc(NC(=O)Nc3ccccc3)cc2)no1 |  | inactive: 11.4%
38 | CCOC(=O)c1c(N)sc(=S)c2c1CCC2 | inconclusive: 22.4 µM [quencher, side channel, single point] | 
39 | Cc1ccc(N(C(=O)c2ccn[nH]2)C(C(=O)NC2CCCC2)c2cccs2)cc1 (stereo not drawn) | inconclusive: 7.94 µM [fluorescent, side channel, full curve, poor fit] | 
40 | O=C(Nc1cccc(S(=O)(=O)Nc2ccc(Cl)cc2)c1)c1ccc(Cl)nc1 | inconclusive: 14.1 µM [quencher, side channel, partial curve] | 

Row | Compound | Potency | FP activity change, negative = inhibition
41 | NS(=O)(=O)c1ccc2c(c1)C1C=CCC1C(C1CC=CCC1)N2 (stereo not drawn) | inconclusive: 35.5 µM [quencher, side channel, single point] | 
42 | O=C(O)C1CCN(S(=O)(=O)c2ccc3c(c2)OCCCO3)CC1 |  | inactive: -7.51%
43 | COc1cccc(Nc2ncc3nc(-c4cc(F)cc(F)c4)c(=O)n(CCC#N)c3n2)c1 | inconclusive: 8.91 µM [quencher, side channel, partial curve] | 
44 | CN(C)CCCNCCNC(=O)/C=N\O | inconclusive: 0.708 µM [inhibitor, full curve, poor fit] | 
45 | Cc1ccc(-n2[nH]c(C)c(/C=N/N3C(=O)c4cccc5cccc(c45)C3=O)c2=O)cc1 | inconclusive: 20 µM [quencher, side channel, single point] | 
46 | CC(C)NC(=O)CSc1nnc(C2CC2)n1-c1ccccc1 | inconclusive: 39.8 µM [inhibitor, single point] | 
47 | CCOC(=O)CC(=O)CSc1nc(-c2cccnc2)ccc1C#N | inconclusive: 17.8 µM [inhibitor, single point] | 
48 | CC1(C)C(O)C=C[C@@]2(C)C1CC(=O)O[C@@]1(C)C3=CC(=O)OC(c4ccoc4)[C@]3(C)CCC21 (stereo partly drawn) | inconclusive: 3.16 µM [fluorescent, side channel, partial curve] | 
49 | COc1ccc(C(CNC(=O)c2cccc(N(C)C)c2)N2CCCC2)cc1 (stereo not drawn) | inconclusive: 22.4 µM [fluorescent, side channel, single point] | 
50 | O=C(Nc1ccc(Cl)cc1)Nc1ccc(N2CCCC2)c(S(=O)(=O)Nc2ccccc2Cl)c1 | inconclusive: 3.16 µM [quencher, side channel, full curve] | 
51 | COc1ccc(CNC(=S)NNC(=O)c2cc3ccccc3o2)cc1 | inconclusive: 25.1 µM [quencher, side channel, single point] | 
52 | CN(O)/C=c1/ccc2c(n1)C(=O)C=CC=2 |  | inactive: -2.89%
53 | COc1ccc(/C=C2/SC(=S)N(CC(=O)O)C2=O)cc1OCc1ccc(Cl)cc1 | inconclusive: 20 µM [quencher, side channel, partial curve] | 
54 | C=CCn1c(=O)n(CCC#N)c(=O)n(CCC#N)c1=O |  | inactive: -0.721%
55 | O=C1C(Cc2c[nH]c3ccccc23)NC(=S)N1Cc1ccccc1 (stereo not drawn) | inconclusive: 14.1 µM [quencher, side channel, partial curve] | 
56 | CC1=C(C(=O)Nc2ccccc2)C(c2ccc(C)o2)n2c(s/c(=C\c3ccco3)c2=O)=N1 (stereo not drawn) | inconclusive: 28.2 µM [quencher, side channel, single point] | 
57 | COc1ccccc1CNC(=O)COc1ccc(Br)c(C)c1 | inconclusive: 14.1 µM [fluorescent, side channel, partial curve] | 
58 | COc1ccccc1NC(=O)C1=C(C)NC(=O)NC1c1ccccc1[N+](=O)[O-] (stereo not drawn) | inconclusive: 22.4 µM [quencher, side channel, partial curve] | 
